The other results are listed elsewhere or left out.
Biological target: T1, MBP-FoxP1dN (Mus musculus, UniProt P58462 326-579)
T1 sequence: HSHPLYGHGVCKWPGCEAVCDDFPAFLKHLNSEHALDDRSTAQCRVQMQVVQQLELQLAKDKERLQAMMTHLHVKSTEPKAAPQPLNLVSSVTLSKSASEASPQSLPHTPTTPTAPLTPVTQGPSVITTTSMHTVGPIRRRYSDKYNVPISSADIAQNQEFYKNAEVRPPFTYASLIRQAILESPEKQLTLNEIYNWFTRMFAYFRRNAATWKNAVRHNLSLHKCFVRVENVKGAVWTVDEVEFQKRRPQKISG
Assay: PD-seq (MBP pull-down with sequencing); 20 mM Tris-HCl pH 7.5, 100 mM NaCl, 1.5 mM MgCl2, 0.4 uM protein, 0.1 uM dsDNA library, 30 min, room temperature, amylose pull-down; high values mean tight binding
Settings: protein: recombinant; tags: His6-MBP; chain copies: 2; dsDNA, one strand shown
Procedure, shortened: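 Protein and DNA were mixed at 0.4 µM and 0.1 µM and held for 30 min at room temperature in Tris pH 7.5 buffer with NaCl and MgCl2; the protein was a His6-MBP-tagged, N-terminally truncated mouse FoxP3 or FoxP1 fragment from E. coli, and the DNA a Klenow-filled double-stranded degenerate library. Amylose resin captured the complexes, which were washed three times. Binding is read as reads-per-million enrichment of pull-down versus input after Illumina sequencing, with replicates pooled.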

Sequence	binding signal
GATGATTGTTCTCCCAGCTGATGAATTGCTCCCCTCGAGTAAACAAATTTTCCTAATCTTTCTGTTCAAGCGCCATCTAC	0.938 RPM ratio (pull-down/input)
GATGATTGTTCTCCCAGCTGATGAATTAAACCGCTCGAGTAAACAAATTTTCCTAATCTTTCTGTTCAAGCGCCATCTAC	0.876 RPM ratio (pull-down/input)
GATGATTGTTCTCCCAGCTGATGAATTTTCAGCTTCGAGTAAACAAATTTTCCTAATCTTTCTGTTCAAGCGCCATCTAC	0.877 RPM ratio (pull-down/input)
GATGATTGTTCTCCCAGCTGATGAATTACAATATTCGAGTAAACAAATTTTCCTAATCTTTCTGTTCAAGCGCCATCTAC	1.5 RPM ratio (pull-down/input)
GATGATTGTTCTCCCAGCTGATGAATTGGCTGATTCGAGTAAACAAATTTTCCTAATCTTTCTGTTCAAGCGCCATCTAC	0.858 RPM ratio (pull-down/input)
GATGATTGTTCTCCCAGCTGATGAATTTTCCCTATCGAGTAAACAAATTTTCCTAATCTTTCTGTTCAAGCGCCATCTAC	0.937 RPM ratio (pull-down/input)
GATGATTGTTCTCCCAGCTGATGAATTGCGAGACTCGAGTAAACAAATTTTCCTAATCTTTCTGTTCAAGCGCCATCTAC	1.01 RPM ratio (pull-down/input)
GATGATTGTTCTCCCAGCTGATGAATTACTGCAATCGAGTAAACAAATTTTCCTAATCTTTCTGTTCAAGCGCCATCTAC	1.31 RPM ratio (pull-down/input)
GATGATTGTTCTCCCAGCTGATGAATTCCCAAGCTCGAGTAAACAAATTTTCCTAATCTTTCTGTTCAAGCGCCATCTAC	0.781 RPM ratio (pull-down/input)
GATGATTGTTCTCCCAGCTGATGAATTCCTACCCTCGAGTAAACAAATTTTCCTAATCTTTCTGTTCAAGCGCCATCTAC	0.781 RPM ratio (pull-down/input)
GATGATTGTTCTCCCAGCTGATGAATTATTATCGTCGAGTAAACAAATTTTCCTAATCTTTCTGTTCAAGCGCCATCTAC	1.4 RPM ratio (pull-down/input)
GATGATTGTTCTCCCAGCTGATGAATTGCTTTGTTCGAGTAAACAAATTTTCCTAATCTTTCTGTTCAAGCGCCATCTAC	1.11 RPM ratio (pull-down/input)
GATGATTGTTCTCCCAGCTGATGAATTTTCACGTTCGAGTAAACAAATTTTCCTAATCTTTCTGTTCAAGCGCCATCTAC	0.913 RPM ratio (pull-down/input)
GATGATTGTTCTCCCAGCTGATGAATTCGATCGATCGAGTAAACAAATTTTCCTAATCTTTCTGTTCAAGCGCCATCTAC	0.893 RPM ratio (pull-down/input)
GATGATTGTTCTCCCAGCTGATGAATTAGTGTGATCGAGTAAACAAATTTTCCTAATCTTTCTGTTCAAGCGCCATCTAC	1.11 RPM ratio (pull-down/input)
GATGATTGTTCTCCCAGCTGATGAATTGAGCGGGTCGAGTAAACAAATTTTCCTAATCTTTCTGTTCAAGCGCCATCTAC	0.815 RPM ratio (pull-down/input)
GATGATTGTTCTCCCAGCTGATGAATTCAAGATATCGAGTAAACAAATTTTCCTAATCTTTCTGTTCAAGCGCCATCTAC	0.908 RPM ratio (pull-down/input)
GATGATTGTTCTCCCAGCTGATGAATTTGGTCTGTCGAGTAAACAAATTTTCCTAATCTTTCTGTTCAAGCGCCATCTAC	0.833 RPM ratio (pull-down/input)
GATGATTGTTCTCCCAGCTGATGAATTGGCGGAATCGAGTAAACAAATTTTCCTAATCTTTCTGTTCAAGCGCCATCTAC	0.875 RPM ratio (pull-down/input)
GATGATTGTTCTCCCAGCTGATGAATTGCGTAGTTCGAGTAAACAAATTTTCCTAATCTTTCTGTTCAAGCGCCATCTAC	1.04 RPM ratio (pull-down/input)
GATGATTGTTCTCCCAGCTGATGAATTGTGCTCGTCGAGTAAACAAATTTTCCTAATCTTTCTGTTCAAGCGCCATCTAC	1.01 RPM ratio (pull-down/input)

Sequence	binding signal
GATGATTGTTCTCCCAGCTGATGAATTATTGTCTTCGAGTAAACAAATTTTCCTAATCTTTCTGTTCAAGCGCCATCTAC	1.48 RPM ratio (pull-down/input)
GATGATTGTTCTCCCAGCTGATGAATTCATAGCCTCGAGTAAACAAATTTTCCTAATCTTTCTGTTCAAGCGCCATCTAC	0.914 RPM ratio (pull-down/input)
GATGATTGTTCTCCCAGCTGATGAATTCGTGGACTCGAGTAAACAAATTTTCCTAATCTTTCTGTTCAAGCGCCATCTAC	0.806 RPM ratio (pull-down/input)
GATGATTGTTCTCCCAGCTGATGAATTTCCACGGTCGAGTAAACAAATTTTCCTAATCTTTCTGTTCAAGCGCCATCTAC	0.792 RPM ratio (pull-down/input)
GATGATTGTTCTCCCAGCTGATGAATTTTCTACATCGAGTAAACAAATTTTCCTAATCTTTCTGTTCAAGCGCCATCTAC	1.02 RPM ratio (pull-down/input)
GATGATTGTTCTCCCAGCTGATGAATTATTGCAATCGAGTAAACAAATTTTCCTAATCTTTCTGTTCAAGCGCCATCTAC	1.49 RPM ratio (pull-down/input)
GATGATTGTTCTCCCAGCTGATGAATTAACCATATCGAGTAAACAAATTTTCCTAATCTTTCTGTTCAAGCGCCATCTAC	0.989 RPM ratio (pull-down/input)
GATGATTGTTCTCCCAGCTGATGAATTTATCGTATCGAGTAAACAAATTTTCCTAATCTTTCTGTTCAAGCGCCATCTAC	1.22 RPM ratio (pull-down/input)
GATGATTGTTCTCCCAGCTGATGAATTTTAAGGCTCGAGTAAACAAATTTTCCTAATCTTTCTGTTCAAGCGCCATCTAC	0.833 RPM ratio (pull-down/input)
GATGATTGTTCTCCCAGCTGATGAATTCATACCGTCGAGTAAACAAATTTTCCTAATCTTTCTGTTCAAGCGCCATCTAC	0.868 RPM ratio (pull-down/input)
GATGATTGTTCTCCCAGCTGATGAATTATCCGAATCGAGTAAACAAATTTTCCTAATCTTTCTGTTCAAGCGCCATCTAC	0.97 RPM ratio (pull-down/input)
GATGATTGTTCTCCCAGCTGATGAATTTGACGGATCGAGTAAACAAATTTTCCTAATCTTTCTGTTCAAGCGCCATCTAC	0.841 RPM ratio (pull-down/input)
GATGATTGTTCTCCCAGCTGATGAATTCTTAAGTTCGAGTAAACAAATTTTCCTAATCTTTCTGTTCAAGCGCCATCTAC	0.861 RPM ratio (pull-down/input)
GATGATTGTTCTCCCAGCTGATGAATTACGGCTCTCGAGTAAACAAATTTTCCTAATCTTTCTGTTCAAGCGCCATCTAC	0.947 RPM ratio (pull-down/input)
GATGATTGTTCTCCCAGCTGATGAATTAAAGGGATCGAGTAAACAAATTTTCCTAATCTTTCTGTTCAAGCGCCATCTAC	0.92 RPM ratio (pull-down/input)
GATGATTGTTCTCCCAGCTGATGAATTTACCCTCTCGAGTAAACAAATTTTCCTAATCTTTCTGTTCAAGCGCCATCTAC	1.06 RPM ratio (pull-down/input)
GATGATTGTTCTCCCAGCTGATGAATTGCCTACTTCGAGTAAACAAATTTTCCTAATCTTTCTGTTCAAGCGCCATCTAC	0.913 RPM ratio (pull-down/input)
GATGATTGTTCTCCCAGCTGATGAATTACGTTGATCGAGTAAACAAATTTTCCTAATCTTTCTGTTCAAGCGCCATCTAC	1.16 RPM ratio (pull-down/input)
GATGATTGTTCTCCCAGCTGATGAATTCCAACGATCGAGTAAACAAATTTTCCTAATCTTTCTGTTCAAGCGCCATCTAC	0.859 RPM ratio (pull-down/input)
GATGATTGTTCTCCCAGCTGATGAATTCCGCTAGTCGAGTAAACAAATTTTCCTAATCTTTCTGTTCAAGCGCCATCTAC	0.843 RPM ratio (pull-down/input)
GATGATTGTTCTCCCAGCTGATGAATTGCGATACTCGAGTAAACAAATTTTCCTAATCTTTCTGTTCAAGCGCCATCTAC	1.09 RPM ratio (pull-down/input)

Sequence	binding signal
GATGATTGTTCTCCCAGCTGATGAATTCAGATGTTCGAGTAAACAAATTTTCCTAATCTTTCTGTTCAAGCGCCATCTAC	0.957 RPM ratio (pull-down/input)
GATGATTGTTCTCCCAGCTGATGAATTCAGGCATTCGAGTAAACAAATTTTCCTAATCTTTCTGTTCAAGCGCCATCTAC	1.01 RPM ratio (pull-down/input)
GATGATTGTTCTCCCAGCTGATGAATTTTGCTCGTCGAGTAAACAAATTTTCCTAATCTTTCTGTTCAAGCGCCATCTAC	0.898 RPM ratio (pull-down/input)
GATGATTGTTCTCCCAGCTGATGAATTCCGCTTGTCGAGTAAACAAATTTTCCTAATCTTTCTGTTCAAGCGCCATCTAC	0.846 RPM ratio (pull-down/input)
GATGATTGTTCTCCCAGCTGATGAATTGATGATATCGAGTAAACAAATTTTCCTAATCTTTCTGTTCAAGCGCCATCTAC	1.21 RPM ratio (pull-down/input)
GATGATTGTTCTCCCAGCTGATGAATTGCACATGTCGAGTAAACAAATTTTCCTAATCTTTCTGTTCAAGCGCCATCTAC	1.34 RPM ratio (pull-down/input)
GATGATTGTTCTCCCAGCTGATGAATTATCGCCGTCGAGTAAACAAATTTTCCTAATCTTTCTGTTCAAGCGCCATCTAC	0.983 RPM ratio (pull-down/input)
GATGATTGTTCTCCCAGCTGATGAATTCCATTGTTCGAGTAAACAAATTTTCCTAATCTTTCTGTTCAAGCGCCATCTAC	0.957 RPM ratio (pull-down/input)
GATGATTGTTCTCCCAGCTGATGAATTGCTGCACTCGAGTAAACAAATTTTCCTAATCTTTCTGTTCAAGCGCCATCTAC	1.06 RPM ratio (pull-down/input)
GATGATTGTTCTCCCAGCTGATGAATTGACTATGTCGAGTAAACAAATTTTCCTAATCTTTCTGTTCAAGCGCCATCTAC	1.07 RPM ratio (pull-down/input)
GATGATTGTTCTCCCAGCTGATGAATTTCAATCATCGAGTAAACAAATTTTCCTAATCTTTCTGTTCAAGCGCCATCTAC	1.01 RPM ratio (pull-down/input)
GATGATTGTTCTCCCAGCTGATGAATTGCGCACCTCGAGTAAACAAATTTTCCTAATCTTTCTGTTCAAGCGCCATCTAC	1.05 RPM ratio (pull-down/input)
GATGATTGTTCTCCCAGCTGATGAATTTTTAAGCTCGAGTAAACAAATTTTCCTAATCTTTCTGTTCAAGCGCCATCTAC	0.876 RPM ratio (pull-down/input)
GATGATTGTTCTCCCAGCTGATGAATTGAAATTCTCGAGTAAACAAATTTTCCTAATCTTTCTGTTCAAGCGCCATCTAC	0.884 RPM ratio (pull-down/input)
GATGATTGTTCTCCCAGCTGATGAATTGCTAGTGTCGAGTAAACAAATTTTCCTAATCTTTCTGTTCAAGCGCCATCTAC	1.09 RPM ratio (pull-down/input)
GATGATTGTTCTCCCAGCTGATGAATTTCTTGTGTCGAGTAAACAAATTTTCCTAATCTTTCTGTTCAAGCGCCATCTAC	1 RPM ratio (pull-down/input)
GATGATTGTTCTCCCAGCTGATGAATTTCTTAGCTCGAGTAAACAAATTTTCCTAATCTTTCTGTTCAAGCGCCATCTAC	0.774 RPM ratio (pull-down/input)
GATGATTGTTCTCCCAGCTGATGAATTTGACTACTCGAGTAAACAAATTTTCCTAATCTTTCTGTTCAAGCGCCATCTAC	0.836 RPM ratio (pull-down/input)
GATGATTGTTCTCCCAGCTGATGAATTCGATCAGTCGAGTAAACAAATTTTCCTAATCTTTCTGTTCAAGCGCCATCTAC	0.779 RPM ratio (pull-down/input)
GATGATTGTTCTCCCAGCTGATGAATTAGGTTTTTCGAGTAAACAAATTTTCCTAATCTTTCTGTTCAAGCGCCATCTAC	1 RPM ratio (pull-down/input)
GATGATTGTTCTCCCAGCTGATGAATTGCAATTCTCGAGTAAACAAATTTTCCTAATCTTTCTGTTCAAGCGCCATCTAC	1.38 RPM ratio (pull-down/input)

From publication PMC12820563, “FoxP3 forms a head-to-head dimer in vivo and stabilizes its multimerization on adjacent microsatellites”
